{"source": "patent US20170342136A1", "about": "“MONOCLONAL ANTIBODY AGAINST MURAMYL PEPTIDES IN PREVENTION AND TREATMENT OF IMMUNE-MEDIATED DISEASES” (Agency for Science, Technology and Research, priority 2015, published 2017)", "molecules": {"B1": {"name": "2E7: mouse monoclonal antibody against muramyl dipeptides; heavy chain variable SEQ ID NO: 3, light chain variable SEQ ID NO: 4 (antibody)", "heavy": "MLVESGGGLVQPGGSMKLSCIVSGFTFSYYWMSWVRQSPEKGFEWVAEIRLKSENYATNYTESVKGKFTISRDDSKSRLYLQMNSLGAEDTGIYYCLTGYAWFAYWGQGTLVTVSAAKTTPPSVYPLAPGSAAQTNSMVTLGCLVKGYFPEPVTVTWNSGSLSSGVHTFPAVLQSDLYTLSSSVTVPSSTWPSETVTCNVAHPASSTK", "light": "DVQMIQSPKRLIYLVSKLDSGVPDRFTGSGSGTDFTLKISRVEAEDLGVYYCVQHTHFPTFGGGTKLEIKRADAAPTVSIFPPSSEQLTSGGASVVCFLNNFYPKDINVKWKIDGSERQNGVLNSWTDQDSKDSTYSMSSTLTLTKDEYERHNSYTCEATHKTSTSPIVKSFNRNEC", "modifications": "Heavy chain of the variable region of 2E7; Light chain of the variable region of 2E7"}}, "key": {"[1]": {"assay": "ELISA determination of Kd of 2E7 on wells coated with MDP-OVA", "type": "binding", "description": "After washes to remove unbound Abs, an anti-mouse-IgG Ab coupled with horseradish peroxidase (HSP) was added. After incubation, unbound secondary Ab was removed by washes and a chromogenic substrate of HSP was added. After reaction, the color intensity in each well was measured using a microtiter plate reader at 492 nm. […] Coefficient data: a=2.8768241, b=2.8055033, c=212.44541, and d=0.8659833. Y50=1.45, X=0.00131 μg/ml.\nA mAb (2E7) was obtained from immunization of mice with N-acetylmuramyl-L-alanyl-D-isoglutamine. […] An IgG1 mAb that specifically recognizes the glutaraldehyde linker used to couple MDP to HSA was also obtained in the screening of hybridoma clones."}, "Escherichia coli cells": {"system": "Escherichia coli cells", "assay": "Fluorescence microscopy and aggregation of live bacterial cells incubated with 2E7", "type": "cell-based", "description": "(§1) The standard curve was used to determine the peptidoglycan concentration in a sample. […] Both bacteria were grown to OD600=1.5. Each culture was divided into two, and one treated with 40 μg/ml amoxicillin (Amx) and the other untreated. Aliquots were collected at the indicated times and the amount of MPs in the supernatant was determined by competitive ELISA. […] After removing unbound antibodies by PBS washes, the cells were incubated with a FITC-labeled anti-mouse IgG Ab before fluorescence microscopic examination.\n(§2) Both Staphylococcus aureus and Escherichia coli cells were first incubated with 2E7 and then with an anti-mouse IgG Ab conjugated with FITC."}, "[2]": {"system": "Staphylococcus aureus cells", "assay": "Fluorescence microscopy and aggregation of live bacterial cells incubated with 2E7", "type": "cell-based", "description": "as §1, §2"}, "[3]": {"system": "Collagen Antibody Induced Arthritis (CAIA) mouse model", "assay": "CAIA mouse model, preventive study, clinical paw score", "type": "in vivo, Balb/c mice", "conditions": "single IP dose, vs isotype control antibody", "description": "Balb/c mice were stimulated to develop arthritis by injection with a cocktail of anti-collagen monoclonal antibodies. […] Each of the CAIA mice was given a single dose of intraperitoneal (IP) injection with 2E7 or an isotype control antibody at the onset of rheumatoid arthritis.\n(§3) CAIA was induced in 9-10 weeks old Balb/c mice by intravenous injection of 3 mg of Arthogen-CIA-5 cocktail from the tail vein on Day 0 and intraperitoneal injection of 25 µl of LPS on Day 3.\nFor the study of 2E7 on the prevention of rheumatoid arthritis, mice were randomly assigned to 2E7 treatment group or control group according to body weight."}, "[4]": {"system": "Collagen Antibody Induced Arthritis (CAIA) mouse model", "assay": "CAIA mouse model, therapeutic study, clinical paw score", "type": "in vivo, Balb/c mice", "description": "as §3\nOn day 2, mice were assessed by paw score (Table 3) and assigned to groups in a manner such that different groups have similar average paw scores. The mice that were extremely sensitive to induction (score from a single paw=4) were excluded from the study. […] On day 3, each mouse was given an intraperitoneal injection of 25 μl of LPS.\n(§4) Mice were induced for CAIA as a single group on Day 0. On day 2, mice were assessed by paw score (Table 3) and assigned to groups in a manner that different groups have similar average paw scores. The mice that were extremely sensitive to induction (score from a single paw=4) were excluded from the study. […] On day 3, each mouse was given an intraperitoneal injection of 25 µl of LPS. The clinical paw scores of the mice were assessed according to the paw score criteria in Table 3.\nas §4, with “The same CAIA mouse model was used. Mice” for “Mice”, “μl” for “µl”"}, "[5]": {"system": "Collagen Antibody Induced Arthritis (CAIA) mouse model", "assay": "CAIA mouse model, relapse study, clinical paw score", "type": "in vivo, Balb/c mice", "conditions": "relapse by LPS on Day 16, single IP dose 20 mg, vs control group, n=4", "description": "as §3"}, "[6]": {"system": "NOD2 knockout CAIA mouse models", "assay": "CAIA in NOD2 knockout mice, clinical paw score", "type": "in vivo, Nod2 knock-out mice in C57B/L6 background", "conditions": "single IP dose on Day 2 vs control antibody", "description": "NOD2 is an intracellular pattern recognition receptor, which is similar in structure to resistant proteins of plants and recognizes molecules containing the specific structure of MDP. […] To test this hypothesis, Nod2 knock-out mice in C57B/L6 background were induced for CAIA as a single group on Day 0, by intravenous injection of 5 mg of Arthogen-CIA-5 cocktail from the tail vein. On day 2, mice were assessed by paw score (Table 3) and assigned to groups in a manner that different groups have similar average paw scores. The mice that were extremely sensitive to induction (score from a single paw=4) were excluded from the study. […] On day 3, each mouse was given an intraperitoneal injection of 50 μl of LPS. Higher amount of Arthogen-CIA-5 cocktail and LPS were used since mice in C57B/L6 background are more resistant to the CAIA induction than mice in Balb/c background."}, "[7]": {"system": "Experimental Autoimmune Encephalomyelitis (EAE) mouse model", "assay": "Mouse experimental autoimmune encephalomyelitis (EAE) model of multiple sclerosis", "type": "in vivo, female C57BL/6 mice", "conditions": "150 mg/kg i.p., vs isotype control, n=12", "description": "EAE induction was carried out in 42 female C57BL/6 mice (Taconic Farms, 9 weeks old). The induction was carried out according to the following schedule:\nDay 0, Hour 0—Immunization with MOG35-55/CFA Day 0, Hour 2—Injection of pertussis toxin Day 1, Hour 0—2nd injection of pertussis toxin (24 hours after initial immunization)\nMice were injected subcutaneously at two sites in the back with the emulsion component (containing MOG35-55) of Hooke Kit™ M OG35-55/CFA Emulsion PTX, catalog number EK-2110 (Hooke Laboratories, Lawrence Mass.). One site of injection was in the area of upper back, approximately 1 cm caudal of the neckline. The second site was in the area of lower back, approximately 2 cm cranial of the base of the tail. The injection volume was 0.1 mL at each site. Within 2 hours of the injection of emulsion, and then again 24 hours after the injection of emulsion, the pertussis toxin component of the kit was administered intraperitoneally. The volume of each injection was 0.1 mL. […]\nEAE scores were measured daily from Day 7 after immunization until the end of the study according to the criteria set out in Table 5. Body weights of the mice were measured three times a week (Monday, Wednesday and Friday), starting from Day −1 and until the end of the study. […]"}, "[8]": {"system": "pro-inflammatory cytokines", "assay": "Luminex assay on sera from CAIA mice", "type": "in vivo", "conditions": "vs control antibody, n=8", "description": "Luminex assay was performed on the sera from the CAIA mice treated with control or 2E7 antibody."}, "T cell proliferation": {"system": "T cell proliferation", "assay": "Flow cytometry analysis of splenocytes of CAIA mice", "type": "in vivo", "conditions": "vs control antibody, n=4"}}, "note": "“Also recorded” adds a separate entry of the source.", "data": [{"molecule": "B1", "values": [{"measurement": "Kd", "setting": "[1]; MDP-OVA coated plate, OD492, Weibull model fit, IgG MW=150", "value": 8.7, "unit": "pM"}, {"measurement": "X (2E7 concentration at Y50=1.45)", "setting": "[1]; binding curve on MDP-OVA, OD492", "value": 0.00131, "unit": "µg/mL"}, {"measurement": "affinity to MPs", "setting": "[1]; in words", "value": "picomolar affinity"}, {"measurement": "staining of cells", "setting": "Escherichia coli cells; 2E7 then FITC anti-mouse IgG", "value": "weak staining"}, {"measurement": "cell aggregation", "setting": "Escherichia coli cells; live cells, data not shown", "value": "significant cell aggregation"}, {"measurement": "staining of cells", "setting": "[2]; 2E7 then FITC anti-mouse IgG", "value": "strong staining"}, {"measurement": "cell aggregation", "setting": "[2]; live cells, data not shown", "value": "significant cell aggregation"}, {"measurement": "onset of rheumatoid arthritis", "setting": "[3]", "value": "significantly prevented the onset of rheumatoid arthritis"}, {"measurement": "clinical paw score", "setting": "[4]; 2E7 at the onset of rheumatoid arthritis vs control antibody, n=8, p<0.01", "value": "reduced clinical paw score"}, {"measurement": "efficacy on clinical paw score", "setting": "[4]; single IP dose 10 mg/kg", "value": "efficacious"}, {"measurement": "clinical paw score", "setting": "[4]; single IP injection at 10, 40 and 160 mg/kg on Day 2, n=5", "value": "clear and dose-dependent therapeutic effects"}, {"measurement": "clinical paw scores on relapse", "setting": "[5]", "value": "effectively prevented the increase in clinical paw scores"}, {"measurement": "progression of arthritis", "setting": "[6]", "value": "not able to suppress disease progression; also recorded: did not significantly suppress the progression of arthritis"}, {"measurement": "clinical symptoms, paralysis of the limbs and tail (EAE score)", "setting": "[7]; three doses (1st, 4th and 7th day of disease)", "value": "significantly improved; also recorded: suppressed"}, {"measurement": "loss of body weight", "setting": "[7]; three doses", "value": "significantly improved; also recorded: significantly reduced"}, {"measurement": "G-CSF level in sera", "setting": "[8]", "value": "significantly reduced"}, {"measurement": "sIL-1RI level in sera", "setting": "[8]", "value": "significantly reduced"}, {"measurement": "sIL-6R level in sera", "setting": "[8]", "value": "significantly reduced"}, {"measurement": "sVEGFR3 level in sera", "setting": "[8]", "value": "significantly reduced"}, {"measurement": "T cell proliferation in CD4+ T-cells", "setting": "T cell proliferation", "value": "significantly reduced"}, {"measurement": "T cell proliferation in CD8+ T-cells", "setting": "T cell proliferation", "value": "significantly reduced"}]}]}
